Results from PubChem BioAssay AID504339 (National Center for Advancing Translational Sciences (NCATS), 2011).
Screen size: about 390,000 compounds; about 17,000 (4.4%) were called active. This list was built around the results that the source calls inconclusive (neither active nor inactive); the mix of calls is not that of the screen. The call rests on the fitted dose curve; in most records, active means well fitted inhibition curve with a large enough effect; inconclusive means small, poorly fitted or top-dose-only effect; inactive means no such curve, though single readings can be large or run the other way. Potencies of inconclusive entries are doubtful fits and often do not repeat.

Target: Lysine-specific demethylase 4A (Homo sapiens) (UniProt O75164)
Experiment: qHTS Assay for Inhibitors of JMJD2A-Tudor Domain; further: nearly all actives have a fitted effect of over 50% in size
Details: AlphaScreen JMJD2A-Tudor / H3K4me3 peptide binding; activity change, negative = inhibition: at 114 µM (top of the series)
On the % scale 0 is the no-effect control and ±100 the full control effect; potency means the concentration at half of the fitted maximal effect; tags describe the fitted curve by direction and shape.

Chain of UniProt O75164 (O75164 whole entry, looked up, the tested form may be a part): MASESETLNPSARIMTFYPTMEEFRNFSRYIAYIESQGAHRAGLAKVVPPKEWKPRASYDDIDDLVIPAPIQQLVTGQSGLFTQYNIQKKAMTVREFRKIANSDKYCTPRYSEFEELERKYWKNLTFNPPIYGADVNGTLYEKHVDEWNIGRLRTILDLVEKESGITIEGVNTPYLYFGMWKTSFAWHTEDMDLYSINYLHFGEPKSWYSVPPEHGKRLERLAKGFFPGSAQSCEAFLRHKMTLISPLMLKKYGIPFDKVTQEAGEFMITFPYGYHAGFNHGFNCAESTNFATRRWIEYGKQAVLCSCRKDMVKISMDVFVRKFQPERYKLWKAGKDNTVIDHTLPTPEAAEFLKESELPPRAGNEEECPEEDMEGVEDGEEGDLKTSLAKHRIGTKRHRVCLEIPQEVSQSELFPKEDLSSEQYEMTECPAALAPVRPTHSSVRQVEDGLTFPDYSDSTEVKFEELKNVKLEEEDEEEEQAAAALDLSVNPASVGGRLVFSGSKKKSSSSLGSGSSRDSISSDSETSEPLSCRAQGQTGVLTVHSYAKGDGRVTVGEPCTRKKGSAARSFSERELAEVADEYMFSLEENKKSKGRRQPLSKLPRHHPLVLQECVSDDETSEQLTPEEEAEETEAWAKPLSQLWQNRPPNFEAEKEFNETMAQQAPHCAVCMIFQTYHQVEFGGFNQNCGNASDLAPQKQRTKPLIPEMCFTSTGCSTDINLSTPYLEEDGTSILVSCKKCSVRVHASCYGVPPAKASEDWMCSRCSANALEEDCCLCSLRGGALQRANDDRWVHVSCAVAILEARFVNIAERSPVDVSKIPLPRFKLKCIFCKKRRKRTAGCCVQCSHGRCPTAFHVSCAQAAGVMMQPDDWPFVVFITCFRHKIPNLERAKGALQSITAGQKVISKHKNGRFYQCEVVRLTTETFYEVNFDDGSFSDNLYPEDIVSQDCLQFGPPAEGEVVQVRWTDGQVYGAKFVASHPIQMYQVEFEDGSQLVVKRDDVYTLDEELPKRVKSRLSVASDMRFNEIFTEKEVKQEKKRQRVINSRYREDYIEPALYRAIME

| SMILES | activity change, negative = inhibition | Potency |
| --- | --- | --- |
| COCCOc1cc(N(CC(=O)N(C)C)S(=O)(=O)c2ccccc2)c(Cl)cc1Cl | inactive: -2.06% |  |
| O=C(Nc1c(C(=O)c2ccccc2)oc2ccccc12)c1cc(=O)c2ccccc2o1 | inactive: 0% |  |
| CC(C)(C)c1ccc(NC(=O)CSc2nnc3scc(-c4ccccc4)n23)cc1 | inactive: -21.5% |  |
| COC(=O)C1=C(C)N(Cc2ccccc2)C(=NCC(C)C)N[C@H]1c1cccc(F)c1 |  | active: 25.1 µM |
| CCNC(=O)COC(=O)c1cc(S(=O)(=O)N2CCCCC2)ccc1C | inactive: -9.56% |  |
| COc1cc(/C=N/Nc2nc(N3CCCC3)nc(N3CCCC3)n2)ccc1OCc1ccccc1F | inactive: -35.2% |  |
| COc1ccccc1C(CNC(=O)c1ccc(-c2ccccc2Cl)o1)N1CCCC1 (stereo not drawn) |  | inconclusive: 63.1 µM [inhibitor, partial curve] |
| O=C(CN1CCOc2ccccc21)N1CCC(Cc2ccccc2)CC1 |  | inconclusive: 89.1 µM [inhibitor, partial curve] |
| CCOc1ccc(CNc2ccc(N3CCCC3)cc2)cc1 |  | active: 63.1 µM |
| CCC(=O)N1CCCc2cc(S(=O)(=O)Nc3ccc(C)c(C)c3)ccc21 | inactive: -24.3% |  |
| COc1ccc(OC)c(NC(=O)c2cc3ccccc3o2)c1 | inactive: 12% |  |
| Cc1cccc(Nc2nnc(SCC(=O)Nc3ccccc3[N+](=O)[O-])s2)c1 |  | inconclusive: 20 µM [inhibitor, partial curve] |
| CC(C)CC1Nc2ncnc(N3CCN(c4ccccn4)CC3)c2N(Cc2ccccc2)C1=O (stereo not drawn) |  | inconclusive: 56.2 µM [inhibitor, partial curve] |
| OCC1CCCN(C(=S)Nc2ccc(OC(F)F)cc2)C1 (stereo not drawn) | inactive: -1.99% |  |
| CCCCCCCCN1C(=O)C(O)=C(C(C)=O)C1c1ccccn1 (stereo not drawn) | inactive: -14.6% |  |
| COc1ccc(C2C(C(C)=O)=C(O)C(=O)N2CCCn2ccnc2)cc1 (stereo not drawn) |  | active: 89.1 µM |
| CCCC1(C(=O)OCC)NC(c2ccc(N(C)C)cc2)C2C(=O)N(c3ccc(OCC)cc3)C(=O)C21 (stereo not drawn) |  | inconclusive: 39.8 µM [inhibitor, single point] |
| CCOc1cc(/C=C2\C(=O)N(CCc3ccc(OC)c(OC)c3)C(C)=C2C(=O)OC)ccc1O |  | active: 39.8 µM |
| CC(=O)C1=C(O)C(=O)N(c2ccc(O)cc2)C1c1ccccc1[N+](=O)[O-] (stereo not drawn) | inactive: -7.48% |  |
| CCOC(=O)C1=C(CSc2nc3c(cc2C#N)CN(C)CC3)OC(N)=C(C#N)C1c1ccc(Cl)cc1 (stereo not drawn) |  | inconclusive: 56.2 µM [inhibitor, partial curve] |
| O=C(Nc1ccccc1)OC1CC2CC1C1CCCC21 (stereo not drawn) | inactive: 20.5% |  |
| NC(=O)c1sc2nc(-c3cccnc3)ccc2c1N | inactive: -16.9% |  |
| Cc1ccc(C)c(N2CCN(C(=O)Cn3nc(Cc4cccnc4)c4ccccc4c3=O)CC2)c1 |  | inconclusive: 10 µM [inhibitor, full curve, poor fit] |
